The full ranking holds about 33,000 sequences; the median of “E-score (-0.5 to 0.5)” is about -0.016, and the highest 2% start at about 0.32. The list shows a part of the results.

This assay has as its target T1, Stp1 (UniProt B3LFK1).
T1 sequence: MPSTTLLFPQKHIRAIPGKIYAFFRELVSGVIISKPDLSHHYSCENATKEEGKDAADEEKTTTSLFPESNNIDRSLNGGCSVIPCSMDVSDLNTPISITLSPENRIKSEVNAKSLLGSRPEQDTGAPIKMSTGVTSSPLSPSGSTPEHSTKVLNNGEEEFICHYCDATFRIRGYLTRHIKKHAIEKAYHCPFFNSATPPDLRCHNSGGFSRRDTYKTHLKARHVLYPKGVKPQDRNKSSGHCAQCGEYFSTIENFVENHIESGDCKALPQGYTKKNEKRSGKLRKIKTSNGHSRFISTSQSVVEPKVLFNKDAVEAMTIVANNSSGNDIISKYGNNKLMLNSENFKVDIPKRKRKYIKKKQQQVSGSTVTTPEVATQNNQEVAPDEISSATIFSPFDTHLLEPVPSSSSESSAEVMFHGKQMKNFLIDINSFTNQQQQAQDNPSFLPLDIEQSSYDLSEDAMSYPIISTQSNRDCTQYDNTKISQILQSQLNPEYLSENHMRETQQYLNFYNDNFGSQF
The assay can be described thus: PBM E-score (8-mer binding enrichment) (E-score (-0.5 to 0.5)); higher = stronger / more preferred TF binding; most listed sequences are background and not binding sites. As to conditions: protein concentration: 200 nM; construct: GST-full length. The method, then: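 Universal 'all 10-mer' protein binding microarrays (Agilent AMADID 015681) probed with GST-tagged S. cerevisiae TFs (full-length or DBD) made by in vitro transcription/translation (PURExpress), about 100-200 nM. Bound TF was detected with fluorescent anti-GST. Each ungapped 8-mer (which stands for itself and its reverse complement) is scored by the PBM enrichment score (E-score), a modified Wilcoxon-Mann-Whitney statistic from -0.5 to +0.5, computed with the Universal PBM Analysis Suite. Scale: above 0.35 generally sequence-specific binding.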
For CCATGGAC, the “PBM E-score” value was -0.0829. The figure for CCGTAAAC is 0.105; for ACAGAAGT it is 0.0374; for ATCGATCA it is -0.128. Consider TCACCTGA, for which the “PBM E-score” value was -0.244. The figure for GATCATCA is -0.241; for AGGCGACC it is -0.0722; for CTTGACAA it is 0.0969. Turning to GAGGCGAA, the “PBM E-score” value was determined as 0.206. In the case of CGAGGGTC, the “PBM E-score” value was -0.345. On to AATTTGCG, for which the “PBM E-score” value amounted to 0.167. Consider GCTGTACA, for which the “PBM E-score” value is -0.094. Turning to GAACATTC, the “PBM E-score” value was -0.0495. The value for ATGTGGGA was -0.235. The figure for ACTGGAAA is -0.0371; for CACTGGAA it is -0.17; for ATTCTTTC it is 0.0215. For GAGCGAGA, the “PBM E-score” value worked out at 0.16. The value for AAGCTCGT was -0.174; that for GACAAGCA was 0.0122; that for ACATTAGG was -0.189. For GGCCTGAC, the “PBM E-score” value was -0.165. Regarding CTCTCCTA, the “PBM E-score” value was -0.0265. Regarding AACATACG, the “PBM E-score” value worked out at 0.25. Consider ATTTGCCG, for which the “PBM E-score” value came to 0.335.

As for CGAATGTC, the “PBM E-score” value is -0.17.

As to AGTGCTTG, the “PBM E-score” value is -0.0109. The value for AATGCCCG was 0.0121; that for AAGCACCA was -0.279; that for ACCAATAG was -0.151. Regarding CCTCTGCC, the “PBM E-score” value is -0.191. Regarding ACCTTACC, the “PBM E-score” value was determined as 0.0147.

CCGCTAGC: the “PBM E-score” value is -0.325.

On to TAGCAACA, for which the “PBM E-score” value worked out at 0.112. The figure for GGACGCGA is -0.16; for AGCTGTAT it is -0.135; for AACAGCGA it is -0.106. The figure for ATGAACAA is 0.17; for AATAGGCA it is 0.27; for GAGGCTAC it is -0.155.

Consider CGAGTTTC, for which the “PBM E-score” value is -0.0593. Consider ACGGCGTG, for which the “PBM E-score” value turned out to be 0.455. The figure for AGTGGTTG is 0.0881; for GAAGGACC it is -0.275; for GAATAGCC it is -0.037. The value for CTTAGTAA was 0.0528. With GTTATGGA, the “PBM E-score” value stood at 0.233. Take TCTTAAAA: the “PBM E-score” value worked out at 0.0254. As to AAAGGTCG, the “PBM E-score” value is -0.326.

For CTTACGTC, the “PBM E-score” value is -0.116. The value for TCATTAAA was 0.263; that for ACTGTAGG was 0.188; that for ACGAAGGA was -0.0434. On to CACTCCGA, for which the “PBM E-score” value is -0.0238. The figure for ACTCTACA is 0.0306. The value for AGCACGCT was -0.227; that for TCCATGCA was 0.206; that for ATAACTCG was 0.0833.

Consider GTTATAAC, for which the “PBM E-score” value was 0.104. On to CCCAAGAA, for which the “PBM E-score” value came out at 0.0548. The value for AATGCGAA was 0.0224. The value for GTACGTAA was 0.0741; that for AACAGAGT was -0.0273. For the sequence ACCTTACT, the “PBM E-score” value came to 0.0341. The value for TAAGGCGA was 0.315; that for GATGGATA was 0.00148.

Turning to GGTAAACC, the “PBM E-score” value is -0.139. For the sequence GCCATAAA, the “PBM E-score” value stood at 0.117. For the sequence AATCCAAT, the “PBM E-score” value is 0.117. The value for ACCCCTGG was -0.349; that for CCATACAG was -0.193; that for ACTATAGA was 0.0307.

For the sequence AGCGGCAA, the “PBM E-score” value stood at 0.321. The figure for GAGCCCCA is -0.16; for AATTGAAC it is -0.0925; for ACTCACTC it is -0.0319. The value for CAGCAAGC was -0.329; that for CACCACTC was 0.153; that for ACCACCGG was -0.134. Turning to GTCACGCA, the “PBM E-score” value was -0.0363.

Regarding AGTTCAAG, the “PBM E-score” value came to 0.138. The figure for ACCATCTA is -0.142; for GCCTATGA it is -0.119.

For ATGTCTCG, the “PBM E-score” value was -0.204. The figure for AGAACCTA is -0.109; for CATTTGCA it is 0.0573.

For the origin of these results see the supplement of paper PMC3334620.
